The whole screen tested about 330,000 compounds, of which about 40 (0.01%) were called active. The shares of active, inactive and inconclusive entries below differ from those in the screen. Calls follow the shape of the dose curve; as a rule, active = well fitted inhibition curve with a large enough effect; inconclusive = small, poorly fitted or top-dose-only effect, or effect the other way; inactive = flat fitted curve, though single readings scatter. Potencies beside an inconclusive call are fits to weak or partial responses and may not hold up.
Target: Ubiquitin carboxyl-terminal hydrolase 2 (Homo sapiens) (UniProt O75604)
Chain of UniProt O75604 (O75604 whole entry, looked up): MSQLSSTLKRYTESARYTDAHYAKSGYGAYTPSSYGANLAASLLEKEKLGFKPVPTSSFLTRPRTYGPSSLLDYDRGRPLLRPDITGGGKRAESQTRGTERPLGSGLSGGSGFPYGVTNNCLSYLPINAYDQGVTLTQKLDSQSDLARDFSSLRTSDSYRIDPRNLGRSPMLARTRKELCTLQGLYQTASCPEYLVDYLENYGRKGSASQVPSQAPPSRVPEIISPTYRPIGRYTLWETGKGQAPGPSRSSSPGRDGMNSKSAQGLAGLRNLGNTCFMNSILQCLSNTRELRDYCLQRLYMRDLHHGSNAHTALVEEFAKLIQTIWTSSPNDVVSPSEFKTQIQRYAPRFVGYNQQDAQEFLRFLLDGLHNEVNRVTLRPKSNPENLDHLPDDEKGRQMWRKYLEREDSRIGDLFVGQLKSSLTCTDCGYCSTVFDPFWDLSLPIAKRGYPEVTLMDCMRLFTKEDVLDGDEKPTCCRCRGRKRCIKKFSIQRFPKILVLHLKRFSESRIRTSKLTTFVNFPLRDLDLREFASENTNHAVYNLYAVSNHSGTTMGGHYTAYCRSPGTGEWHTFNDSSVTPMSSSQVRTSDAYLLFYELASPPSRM
Assay: qHTS Assay for Inhibitors of Ubiquitin-specific Protease USP2a Using CHOP2 as the Reporter;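 as to activity change, negative = inhibition: plate controls were DMSO wells for no effect and full inhibition by NEM control for full effect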
Conditions: USP2 core, Ub-CHOP2 coupled fluorogenic reporter, 485/531; activity change, negative = inhibition: at 38.3 µM (top of the series)
From the text: NIH Molecular Libraries Screening Centers Network [MLSCN] NIH Chemical Genomics Center [NCGC] MLSCN Grant: XO1-MH079852-01 PI Name: Nicholson, Ben. Progenra Inc, Malvern, PA NCGC Assay Overview: Homeostasis of cellular proteins is maintained through a combination of synthesis and degradation. The pathway that accounts for the majority of protein degradation is the ubiquitin-proteasomal pathway. Ubiquitin (Ub) is highly conserved in all cells and the generation of a multi-Ub chain typically targets proteins for degradation by the proteasome. However, ubiquitination is highly reversible and dynamic. Deubiquitination, the reverse process, is catalyzed through the action of enzymes referred to as isopeptidases or deubiquitinating enzymes (DUBs). This group of enzymes is collectively responsible for maintaining adequate pools of free ubiquitin and regulating the ubiquitination status of cellular proteins. The class of DUBs referred to as the ubiquitin-specific proteases (USP) family functions endoproteolytically to cleave Ub chains from a wide range of protein substrates. USP2a deubiquitinates fatty acid synthase (FASN) which has recently been identified as an emerging oncology target. To identify inhibitors of USP2a a cell-free assay was employed. […] The reporter enzyme chosen is an enterokinase called CHOP2, which is activated when the Ub is cleaved by USP2. The free and now activated reporter can subsequently act on its reporter substrate. Thus, this coupled assay gives a fluorescent read-out at excitation/emission wavelengths of 485/531. The assay was developed by Progenra, Inc. and has been licensed for sale by LifeSensors, Inc. as Ub-CHOP2-Reporter-Kit (#PR1101).
NCGC Assay Protocol Summary: The assay buffer, prepared fresh at the day of the assay, contains 20mM Tris-HCl pH 8.0, 2mM CaCl2, 2mM beta-Mercaptoethanol, 0.05% CHAPS. 3ul of 20nM (10nM final) USP2 core, which is stored on ice, is dispensed into a medium-binding black solid Kalypsys 1,536 well plate using the Kalypsys dispenser. The assay plate is then pinned with 23nL compound with the Kalypsys pintool in columns 5-48. The controls are pinned as follows: column 1 two-fold dilutions of 2M NEM in duplicate; column 2 2M NEM (final concentration 38.2mM); column 3&4 DMSO. The assay plate is incubated at RT for 30min. Subsequently, 1.5uL of 100nM (25nM final) Ub-CHOP2 and 1.5uL of 100nM (25nM final) Reporter Substrate (both stored on ice and protected from light) were dispensed into the plate using the Kalypsys dispenser. Plates were read after 60min RT incubation on a ViewLux (Perkin Elmer) plate reader using the following wavelengths Ex 485nm /Em 531nm. Data were normalized to the to AC100 inhibition (NEM). Concentration-response curves were fitted to the normalized data and the concentration-response curves were then classified based on curve quality (r2), response magnitude and degree of measured activity. The time zero reading was used to flag fluorescence artifacts. Keywords: ubiquitination, deubiquitination, proteases, profluorescent, MLSMR, MLPCN, NIH Roadmap, qHTS, NCGC
Potency is read from the fitted curve at half-maximal effect; tags tell the direction and shape of the fitted curve or compound fluorescence and quenching.

Compound	activity change, negative = inhibition	Potency
CC(NC(=O)c1ccc(Br)cc1)c1ccccc1 (configuration not stated)	inactive: -4.85%	–
CNc1oc(Cc2ccccc2)nc1S(=O)(=O)c1ccc(Cl)cc1	inactive: -0.133%	–
O=C(O)C1CN(c2nc(Cl)ccc2[N+](=O)[O-])C1	inactive: 1.53%	–
CC(C)CCNc1ncnc2c1nnn2Cc1ccccc1Cl	inactive: 2.73%	–
O=C(Nc1nc(-c2ccco2)c(-c2ccco2)s1)c1ccc(F)cc1F	–	inconclusive: 28.2 µM [falling, single point]
COc1ccc(C(=O)C[N+]2(C)CCOCC2)cc1	–	inconclusive: 28.2 µM [falling, single point]
c1ccc(Cn2c(SCc3cn4cccnc4n3)nnc2-c2ccco2)cc1	inactive: -0.22%	–
Oc1c(Br)cc(/C=N/n2c(-c3ccccc3)n[nH]c2=S)c(Br)c1O	–	inconclusive: 3.98 µM [falling, single point]
COc1cc(/C=C(/C#N)C(=O)Nc2ccc(C)cc2)ccc1Oc1nc(Cl)ncc1F	inactive: 1.75%	–
Cc1cc(=O)n2[nH]c(-c3sccc3-n3c(C)ccc3C)cc2n1	–	inconclusive: 14.1 µM [falling, single point]
CCCCCCc1cc2cc(-c3nnc(-c4cc(OC)c(OC)c(OC)c4)o3)c(=O)oc2cc1O	–	inconclusive: 31.6 µM [fluorescent, partial curve]
CCOC(=O)C(C)Sc1nnc(Cn2c(=O)sc3ccccc32)n1-c1ccccc1 (configuration not stated)	–	inconclusive: 3.55 µM [falling, single point]
O=C(Cc1ccccc1)Nc1ccc(N2CCCC2)cc1	inactive: -18.3%	–
CCOc1ccc(S(=O)(=O)N(CC(=O)O)c2ccccc2)cc1	–	inconclusive: 28.2 µM [falling, single point]
N#C/C(=C\c1ccc(N2CCOCC2)o1)C(=O)NC1CCCCC1	–	inconclusive: 11.2 µM [fluorescent, partial curve]
CCc1ccc([C@@H]2CC=C(C(=O)O)[C@H](c3ccc(C(C)(C)C)cc3)N2S(=O)(=O)c2ccc(C)cc2)cc1	–	inconclusive: 22.4 µM [falling, single point]
CCc1ccc(-c2csc(NC(=O)Oc3ccccc3)n2)cc1	inactive: 1.63%	–
COc1ccc(-c2cc(C(F)(F)F)nc(-n3cc(Cl)cn3)n2)cc1	inactive: 4.85%	–
Cc1ccc2oc(=O)c3cnn(CC(=O)NCCCOC(C)C)c3c2c1	–	inconclusive: 28.2 µM [falling, single point]
CC1CN(c2nc3ccccc3nc2C(C#N)C(=O)NC2CCCCC2)CC(C)O1 (configuration not stated)	–	inconclusive: 17.8 µM [fluorescent, single point]
O=C(Nc1ccc(C2=NCCN2)cc1)c1ccc(C(=O)Nc2ccc(C3=NCCN3)cc2)c([N+](=O)[O-])c1	–	inconclusive: 22.4 µM [falling, single point]
O=C(CSc1nc2ccccc2c(=O)n1CC1CCCO1)NCc1ccccc1 (configuration not stated)	–	inconclusive: 3.98 µM [falling, single point]
CCCCCN1C=CC=C/C1=C\C=C(C#N)C#N	–	inconclusive: 20 µM [fluorescent, single point]
COc1ccc(-n2nc3c(c2NC(=O)CCl)CSC3)cc1	inactive: 0.636%	–

Compound	activity change, negative = inhibition	Potency
COc1[nH]c(/N=C/c2ccccc2)c(C#N)c1C#N	–	inconclusive: 11.2 µM [fluorescent, partial curve]
Nc1ccc(-c2c3ccc(=O)cc-3oc3cc(O)ccc23)cc1C(=O)O	–	inconclusive: 10 µM [fluorescent, partial curve]
O=C(/C=C/c1cccnc1)c1ccccc1O	inactive: 0.536%	–
CCN(C[C@H]1N[C@@](CC)(C(=O)OC)[C@H]2C(=O)N(Cc3ccccc3)C(=O)[C@@H]12)C(=O)Nc1ccc(C)cc1	–	inconclusive: 22.4 µM [falling, single point]
CC(=O)OC/C=C(\C)CCC=C(C)C	inactive: -3.28%	–
COc1ccccc1C(=O)N/C(=C\c1cn(C)c2ccccc12)C(=O)NCCCN1CCOCC1	inactive: 1.83%	–
COc1ccc(/C=C(\NC(=O)c2ccc(OC)c(OC)c2)C(=O)N2CCN(C)CC2)cc1	–	inconclusive: 3.16 µM [falling, single point]
CCOC(=O)CN1C(=O)CC(c2ccc([N+](=O)[O-])cc2)C1=O (configuration not stated)	inactive: 3.28%	–
CN(CC(=O)Nc1c(Cl)cccc1Cl)C(=O)c1ccccc1SCC(=O)N1CCCC1	inactive: 0.765%	–
O=C(c1ccccc1)c1ccc(O)cc1O	–	inconclusive: 11.2 µM [fluorescent, partial curve]
CC(=O)Nc1ccc(NC(=O)[C@@H](NC(=O)c2cccc(C)c2)C(C)C)cc1	–	inconclusive: 5.01 µM [falling, single point]
O=C(CCS(=O)(=O)c1ccc(Br)cc1)NCc1ccco1	inactive: -9.47%	–
Cn1c(C(=O)N2CCN(Cc3ccc4c(c3)OCO4)CC2)cc2sccc21	–	inconclusive: 20 µM [falling, single point]
CCOC(=O)N1CCN(c2cc(NCCC(=O)O)c3c4c(onc24)-c2ccccc2C3=O)CC1	–	inconclusive: 14.1 µM [fluorescent, single point]
CCc1ccccc1OCC(=O)Nc1ccc(F)c(S(=O)(=O)N2CCOCC2)c1	inactive: 4.5%	–
CCOC(=O)C(=O)Nc1nc(-c2ccc3c(c2)CCN3C(=O)C2CC2)c(C)s1	–	inconclusive: 4.47 µM [falling, single point]
CCn1cc(/C=C/c2cc[n+](C)cc2)c2ccccc21	–	inconclusive: 11.2 µM [fluorescent, partial curve]
CCCc1cc(=O)oc2c(CNc3ccc(OCC)cc3)c(O)ccc12	–	inconclusive: 28.2 µM [fluorescent, single point]
NS(=O)(=O)c1cccc(NC(=O)c2cccs2)c1	inactive: 15.1%	–
COC(=O)c1cc2ccccc2c(-c2c(OC)c(C(=O)OC)cc3ccccc23)c1OC	inactive: 0.0557%	–
Nc1ccc(C2CCCc3nonc32)c2nonc12 (configuration not stated)	inactive: 1.66%	–
COC(=O)C1=C(C)N(c2ccc(OC)c(OC)c2)C(=O)/C1=C\c1ccco1	inactive: -3.29%	–
CCOC(=O)C(C(=O)OCC)c1cc(Br)c2noc3c2c1C(=O)c1ccccc1-3	–	inconclusive: 2.24 µM [fluorescent, partial curve]
